Experimental data reported in the supplement of paper PMC3334620.
Over roughly 33,000 sequences, “E-score (-0.5 to 0.5)” has its median near -0.01; the highest 2% begin near 0.26. The list shows a part of the results.

target: Ste12 (UniProt P13574); assay: PBM E-score (8-mer binding enrichment) (E-score (-0.5 to 0.5)); higher = stronger / more preferred TF binding; most listed sequences are background and not binding sites; settings: protein concentration: 200 nM; construct: GST-DNA-binding domain
In short: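 Bound GST-tagged yeast transcription factors, applied at about 100-200 nM to double-stranded universal all-10-mer Agilent arrays, were detected with fluorescent anti-GST. Scans were normalised with masliner. A modified Wilcoxon-Mann-Whitney statistic, the E-score, was assigned to each ungapped eight-base word pooled with its reverse complement by the Universal PBM Analysis Suite.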

Row | Sequence | PBM E-score
1 | ACGGCCAC | -0.0835
2 | CAGTGTAC | -0.0739
3 | TAACAATA | 0.239
4 | CGGTTGCC | -0.143
5 | CGGAATAG | 0.0664
6 | TATCTTCA | 0.15
7 | ACTGGAAT | 0.047
8 | CGCAGGGC | -0.0726
9 | GAGAGAAC | -0.0294
10 | CACAAGCG | 0.0768
11 | GCTCCTGA | -0.0216
12 | AATGTTAG | -0.00616
13 | GTGGGTTA | -0.0599
14 | CAGATATG | -0.00623
15 | ATTCTAGC | 0.0305
16 | TCAAAGAA | 0.128
17 | CATAATAC | 0.194
18 | GCCATGCC | -0.077
19 | GCATTGGA | -0.113
20 | GAAGGGTA | 0.0573
21 | ATACTAAT | 0.238
22 | ATGTTTGG | 0.151
23 | CCTCTACA | -0.00297
24 | AAAGTTGA | 0.111
25 | GGACGAAA | 0.139

Row | Sequence | PBM E-score
26 | CCAACAAC | -0.0652
27 | AAGCGCCG | 0.172
28 | GATCTTGA | 0.0478
29 | AGAATAAT | 0.0748
30 | TCTTGGAA | 0.0137
31 | AGGCCACC | -0.0834
32 | TAAAAGCA | 0.172
33 | CTTCGGAA | 0.0054
34 | GACCCCCC | -0.143
35 | ATACTTCG | 0.00749
36 | AGCATTTC | 0.137
37 | CACTTAAA | 0.287
38 | AGGCTCAC | -0.164
39 | AATCTTCG | -0.04
40 | CGGTGATC | 0.0826
41 | TGAACGCA | -0.00594
42 | AGCCGACA | -0.204
43 | CTATCTCC | -0.0626
44 | AACTGTCG | -0.0342
45 | AGCGACAC | 0.0304
46 | CCTTCTTC | -0.0872
47 | AATCCTCC | 0.0478
48 | ACGGCTGA | -0.0682
49 | CCCCAGCC | -0.0945
50 | CGTCGCCC | -0.121

Row | Sequence | PBM E-score
51 | AATCCCAC | -0.00232
52 | GCTCCAGA | -0.0645
53 | ACGGACGG | -0.0823
54 | CGATAGGA | -0.142
55 | CACAGCTA | -0.172
56 | ATGTGGGC | -0.0188
57 | CATTACGC | -0.11
58 | GGAGATTA | -0.158
59 | GAAAACAA | 0.197
60 | TGGGCCAA | -0.177
61 | AAGCGATG | -0.0869
62 | ATGTATAA | 0.0504
63 | ATGGAAGA | 0.146
64 | CAGGTGGG | 0.00583
65 | CAAGATAC | 0.0209
66 | ATAAGCAT | -0.0583
67 | AATAGGGC | -0.178
68 | ACTTTCAT | -0.0303
69 | ATCAGAAA | 0.111
70 | AACGCCCC | 0.203
71 | ATTCTCAG | 0.12
72 | TGTAACAA | 0.333
73 | CAGGTGGA | -0.0546
74 | CGTCTGAC | -0.15
75 | CTAGTGAG | -0.0287

Row | Sequence | PBM E-score
76 | CTTAACTA | 0.0405
77 | ATCTTAAG | 0.0605
78 | CAAGCGGA | -0.119
79 | GAGCCCCC | -0.11
80 | CCTTGCTA | -0.0558
81 | ATCTTAAA | 0.204
82 | ACGGCTCT | -0.105
83 | CAATAAGA | 0.021
84 | ATCCCCGA | 0.0518
85 | ATACTTCA | -0.106
86 | AATATCAC | 0.107
87 | AAGTCAAC | 0.0378
88 | CAGCGACC | -0.0234
89 | AGTTCTCG | -0.0126
90 | TCGCCAAA | -0.0442
91 | ATTTGCTG | 0.151
92 | CCTCATTA | 0.133
93 | GGAGGCGA | -0.119
94 | AATCCTTG | 0.0237
95 | AAAGGCAT | -0.0749
96 | AGCTGAGC | -0.298
97 | CTGCGATC | -0.076
98 | CTTTTCCC | 0.073
99 | ATGAGTAA | 0.00434
100 | AGAAAGTG | -0.147

Row | Sequence | PBM E-score
101 | ATTGCATC | 0.152
102 | AAAGTAAA | 0.224
103 | CGGTGAAA | 0.245
104 | AAGAAGAT | 0.0722
105 | AATGGGAA | -0.151
106 | AACATGGC | -0.166
107 | GGGGCACC | -0.0552
108 | ATACAATG | 0.0962
109 | ACGAAAAG | 0.16
110 | CAACTGAC | -0.11
111 | GAAAAAGC | 0.226
112 | GCTCCACA | -0.0645
113 | CTCCTTTA | -0.0987
114 | AAGAAATA | 0.147
115 | ATGCTATA | -0.188
116 | GCAATAGA | 0.0301
117 | AACACGTT | -0.00917
118 | TCTGCAAA | -0.0565
119 | AGAGCCTA | -0.104
120 | AGCGCCGA | -0.135
121 | GTACATAC | -0.112
122 | ATCACAAC | -0.0336
123 | CGTTAACG | -0.0707
124 | CAAGAACC | -0.0297
125 | TGCCGTAA | -0.209

Row | Sequence | PBM E-score
126 | GAGCCTAA | -0.185
127 | GAAGGCGC | -0.122
128 | ATAATTCA | 0.159
129 | AGCTATTA | -0.0498
130 | TCTGACAA | 0.118
131 | CCGTTCCA | -0.0227
132 | CGCAACTA | 0.0849
133 | CAAAGCGG | 0.00547
134 | AGCGTCAT | -0.00577
135 | CACTATGG | -0.0915
136 | CTTTACGC | -0.0846
137 | CAATCCAG | -0.0475
138 | ACACATAG | -0.0287
139 | GACTCGTA | -0.147
140 | AGAGTGTG | -0.0777
141 | ACAGTTAG | 0.0224
142 | ACGCGACG | -0.0146
143 | CACTACAA | 0.232
144 | AAAGTTCT | -0.0249
145 | ACGGCGAT | -0.069
146 | AATTTAGC | 0.0929
147 | CAAATCTG | 0.207
148 | ACATAAGT | 0.0446
149 | GATTAAGC | 0.0349
150 | AAACTTCA | 0.17

Row | Sequence | PBM E-score
151 | CTCCCCGA | 0.0416
152 | CGCCTTGA | -0.167
153 | TCGGTCAA | -0.029
154 | CGTCGCTA | -0.0969
155 | GCACTCCC | -0.0179
156 | ATCGAGAT | -0.0582
157 | GAAACTGA | 0.114
158 | CCGACCTA | 0.0599
159 | AAAGACCG | 0.0453
160 | CCCTGGCC | -0.24
161 | CTTTATTC | 0.0873
162 | GAAGAAAA | 0.197
163 | GCCACCGC | -0.0362
164 | ATCGGTTA | 0.126
165 | AGAAGAGG | -0.0146
166 | ATAACTAC | -0.00165
167 | CACCCCTC | 0.192
168 | ACCCGTGC | -0.232
169 | CCTGCAGG | -0.16
170 | CAAGATTG | 0.0884
171 | CATAGTCA | -0.0776
172 | GTTTATAA | 0.238
